About 18,000 (5.8%) of roughly 310,000 compounds were called active. This list was built around the results that the source calls inconclusive (neither active nor inactive); the mix of calls is not that of the screen. Calls follow the shape of the dose curve; as a rule, active = well fitted inhibition curve with a large enough effect; inconclusive = small, poorly fitted or top-dose-only effect, or another doubt; inactive = no such curve, though single readings can be large or run the other way. Potencies of inconclusive entries are left out as doubtful fits.
Experiment: Primary qHTS for delayed death inhibitors of the malarial parasite plastid, 48 hour incubation
Settings: P. falciparum luciferase growth in erythrocytes; series mostly up to 28.7 µM
Method in brief: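 Erythrocytes infected with P. falciparum carrying an integrated firefly luciferase reporter (2% hematocrit, 0.1% parasitemia final) were exposed to compounds in RPMI 1640 with 0.5% Albumax at 37 C, 5% CO2. Growth inhibition was scored as reduced luminescence.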
Potency is read from the fitted curve at half-maximal effect; tags tell the direction and shape of the fitted curve.

Compound | Potency
CCOc1ccc(N2C(=O)Nc3ccccc3C2(O)C(=O)N2CCN(c3ccccn3)CC2)cc1 (centres undefined) | inactive
Cc1ccc(S(=O)(=O)N2CCN(Cc3nc4ccccc4n3C)CC2)cc1 | inconclusive [inhibitor, partial curve, poor fit]
CC(C)Nc1cc(C(C)(C)C)nc2c(-c3ccccc3)cnn12 | inconclusive [inhibitor, single point]
Cc1cc(C)c(NC(=O)COC(=O)Cc2cccs2)c(C)c1 | inactive
CC(C)S(=O)(=O)c1csc(NC(=O)Nc2cccc([N+](=O)[O-])c2)c1Cl | inconclusive [inhibitor, single point]
NC(=O)c1ccc(Nc2ccc3nonc3c2[N+](=O)[O-])cc1 | inactive
COC(=O)c1ccc(CSc2nc3ccc(S(=O)(=O)N4CCOCC4)cc3[nH]2)cc1 | inconclusive [inhibitor, partial curve, poor fit]
COc1ccc(C(=O)Nc2ccccc2N2CCOCC2)cc1S(=O)(=O)N1CCOCC1 | active: 5.86 µM
COC(=O)C(=C/C(C)=C/c1cccnc1)C(=O)OC | inconclusive [inhibitor, single point]
Cc1ccsc1/C=C(\CC(=O)O)c1nc2ccccc2o1 | inactive
COc1ccc(C(=O)N2CCNC(=O)C2CC(=O)Nc2cccc(Cl)c2Cl)cc1 (centres undefined) | inconclusive [inhibitor, single point]
O=C(N/N=C/c1ccncc1)c1cc([N+](=O)[O-])cc([N+](=O)[O-])c1O | inactive
Cc1nn(CCC#N)c2[nH]c(=O)cc(C(F)(F)F)c12 | inconclusive [inhibitor, single point]
CCc1nnc(NC(=O)C(c2ccccc2)c2ccccc2)s1 | inconclusive [inhibitor, single point]
N/C(=N\OC(=O)c1ccc(Cl)cc1)c1ccc(Cl)cc1 | inconclusive [inhibitor, single point]
CCn1cc(NC(=O)CCl)c(C)n1 | inconclusive [inhibitor, full curve]
CSc1ccc(S(=O)(=O)N2CCC(C(=O)Nc3cccnc3)CC2)cc1 | inactive
CN(C(=O)Nc1ccc(Cl)cc1)n1cnc2ccccc2c1=O | inconclusive [inhibitor, single point]
COc1ccc(NC(=O)c2nc[nH]c2C(=O)NCc2ccccc2)cc1 | inconclusive [inhibitor, single point]
COc1ccc(C(=O)C[n+]2cccc(C)c2)cc1 | inactive
COC(=O)COc1ccc(S(=O)(=O)NCc2cccnc2)cc1C | inactive
Cc1ccc(S(=O)(=O)N2CCCC2CNC(=O)C(=O)NCCN2CCOCC2)cc1 (centres undefined) | inactive
Cc1nc2c(c(C)nn2-c2ccccc2)c(C)c1CCC(=O)Nc1ccc(CN2CCCC2)cc1 | inconclusive [inhibitor, full curve]

Compound | Potency
c1ccc2c(C[C@@H]3CNCCN3CC3CCCCC3)cccc2c1 | inconclusive [inhibitor, single point]
CCc1ccc2oc(=O)cc(CN3CCCCC3C)c2c1 (centres undefined) | inconclusive [inhibitor, full curve, poor fit]
CSCCC(NC(=O)c1ccccc1Cl)C(=O)N1CCN(C(C)=O)CC1 (centres undefined) | inconclusive [inhibitor, single point]
COc1ccc2c(=O)c3c(=O)n(-c4ccc(C)cc4)c(-c4ccccc4)nc3oc2c1 | inconclusive [inhibitor, single point]
COc1ccc(CNC(=O)CN(C(=O)CCC(=O)Nc2nccs2)c2ccccc2C)cc1 | inconclusive [inhibitor, single point]
COc1ccc(NC(=S)NCCc2ccccc2)c(OC)c1 | inactive
CCNC(=O)c1cc(S(=O)(=O)N2CCSCC2)ccc1OC | inactive
Cc1ccc(OCCNC(=O)c2cccc(S(=O)(=O)NCc3ccccc3)c2)cc1 | inconclusive [inhibitor, partial curve]
Cc1ccccc1N1C(N)=NC(N)=NC1(C)C | inconclusive [inhibitor, partial curve, poor fit]
CCOc1cc(C(=O)Nc2cc(C)ccn2)cc(OCC)c1OCC | inactive
O=C(CNc1cccc(S(=O)(=O)N2CCCCC2)c1)Nc1cccc(F)c1 | active: 2.94 µM
COc1ccc(OC)c(-n2c(C)cc(/C=C3\C(=N)N4N=C(CC(=O)N5CCOCC5)SC4=NC3=O)c2C)c1 | inconclusive [inhibitor, partial curve]
Cc1ccc(NC2CCCN(C(=O)CCC(=O)c3ccccc3)C2)cc1C (centres undefined) | inconclusive [inhibitor, single point]
Cc1nc(SCC(=O)NC2CCCC2)c2c(C)c(C)sc2n1 | inconclusive [inhibitor, partial curve, poor fit]
CCN1CCN(c2ccc(S(=O)(=O)N3CCOCC3)cc2NC(=O)C(C)Oc2ccc(Cl)cc2)CC1 (centres undefined) | active: 11.7 µM
Cc1cccc(-n2ncc3c(NCCCn4ccnc4)ncnc32)c1 | inconclusive [inhibitor, single point]
N=C1c2ccccc2CN1c1ccc(N2CCOCC2)c(S(=O)(=O)Nc2ccc(Cl)cc2)c1 | inconclusive [inhibitor, single point]
Cc1ccc(NC(=O)CSc2ccc3nnc(CCNC(=O)c4ccccc4)n3n2)c(C)c1 | inconclusive [inhibitor, partial curve, poor fit]
O=C1C2C(c3ccccc3)CC=CC2[C@H](c2ccc(C(F)(F)F)cc2)N1Cc1ccccc1 (some centres undefined) | active: 3.29 µM
Cc1ccc2c(c1)c1c(c(=O)n(-c3ccccc3C)c(=O)n1CC(=O)NCC1CCCO1)n2C (centres undefined) | inconclusive [inhibitor, single point]
CCOC(=O)C1CCN(C(=O)c2cc(COc3ccc(F)cc3F)on2)CC1 | inactive
COc1ccc(Cn2c(O)c(/C=N/NC(=O)c3cccnc3)c3ccccc3c2=O)cc1 | active: 13.1 µM
O=C(CCNS(=O)(=O)c1ccc2c(c1)CCC(=O)N2)NCc1ccc2c(c1)OCO2 | inactive

Compound | Potency
COc1ccc(O)c(/C=N/Nc2nc3ccccc3[nH]2)c1 | active: 1.85 µM
Cc1ccccc1OCCC(=O)N(CC(C)C)c1c(N)n(Cc2ccccc2)c(=O)[nH]c1=O | active: 11.7 µM
COc1ccc(C(=O)OCC(=O)NCC2CCCCC2)cc1F | inconclusive [inhibitor, single point]
COc1ccccc1NC(CC(=O)c1ccccc1)C(=O)OCC(=O)c1ccc(C)c(C)c1 (centres undefined) | inactive
CCOc1ccc(C(C(=O)NC2CCCCC2)N(C(=O)c2ccco2)c2ccc(-n3cnnn3)c(C)c2)cc1 (centres undefined) | inconclusive [inhibitor, single point]
Cc1ccc2nc3c(nc2c1C)C(O)=C3O | inactive
O=C(Nc1ccc(N2CCN(C(=O)c3ccccc3)CC2)c(Cl)c1)c1ccco1 | active: 8.28 µM
O=C(O)CCS(=O)(=O)Cc1ccccc1Cl | inactive
Cc1ccc(S(=O)(=O)N2CCN(C(=O)c3cc(S(=O)(=O)N(C)C)ccc3N3CCCC3)CC2)c(C)c1 | active: 2.94 µM
CCOC(=O)C1=C(Nc2ccc(OC)cc2)OCC1=O | inconclusive [inhibitor, single point]
Cc1ccc(Nc2nnc(SCC(=O)Nc3cccc(S(=O)(=O)NC4=NCCCCC4)c3)s2)c(C)c1 | inconclusive [inhibitor, partial curve, poor fit]
CC(C)(C)c1ccc(C(=O)NCCn2c(N)c(C#N)c3nc4ccccc4nc32)cc1 | inconclusive [inhibitor, single point]
N#Cc1cc(Sc2ccccn2)c([N+](=O)[O-])cc1C#N | active: 3.7 µM
CSCC[C@H](NC(=O)OC(C)(C)C)C(=O)N1CCC(C(=O)N[C@@H](C)C(=O)NCc2ccc(F)cc2)CC1 | inconclusive [inhibitor, partial curve, poor fit]
COc1ccc(Nc2nc(N)nc(CSC(=S)N3CCN(c4ccccc4)CC3)n2)cc1 | inconclusive [inhibitor, single point]
COc1ccc(S(=O)(=O)N2CCCC2CNC(=O)C(=O)NCc2ccco2)cc1 (centres undefined) | inconclusive [inhibitor, partial curve, poor fit]
CC1Cc2ccccc2N1S(=O)(=O)c1cccc(C(=O)NCCCn2ccnc2)c1 (centres undefined) | inconclusive [inhibitor, single point]
CCN(CC)c1ccc(/C=N/NC(=O)c2ccco2)c(O)c1 | inconclusive [inhibitor, partial curve, poor fit]
O=C(NC1CCOc2ccccc21)c1ccc(=O)[nH]c1 (centres undefined) | inconclusive [inhibitor, partial curve, poor fit]
CCOC(=O)C1=NN(c2ccccc2)C2=NC(C)=C(C(=O)OC)C(c3ccc(C)cc3)N12 (centres undefined) | inactive
O=C(c1ccc(Cl)cc1[N+](=O)[O-])N(Cc1ccccc1)Cc1ccccc1 | inconclusive [inhibitor, single point]
CC1CCCCN1CCNC(=O)CN1C(=O)CSc2ccc(S(=O)(=O)N3CCCCC3)cc21 (centres undefined) | inactive
COC(=O)c1ccc(CNC(=O)c2ccc(NS(=O)(=O)c3ccc4[nH]c(=O)[nH]c4c3)cc2)cc1 | inactive
